Experimental findings from PubChem BioAssay AID1745853 (National Center for Advancing Translational Sciences (NCATS), 2022) are described below.

Where “and” joins values, the source holds several entries; their conditions need not be identical. Equal entries are not always repeated. Some of the results follow. Further columns of the screen follow, without active or inactive calls.

Test in all cases: Primary Screen for Target Class Profiling of Small Molecule Inhibitors of Methyltransferases
The target of assay [1] is Glycine N-methyltransferase (Homo sapiens) (UniProt Q14749). The conditions noted are these: purified enzyme, MTase-Glo SAH luminescence; measured here: GNMT inhibition; at 40 µM; stronger effect = lower value. The gist of the method: (§1)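 Each enzyme was reacted with SAM and its substrate, with compounds tested once at 40 uM; SAH formed was read by MTase-Glo luminescence.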
Assay [2] has as its target Guanidinoacetate N-methyltransferase (Homo sapiens) (UniProt Q14353). The note with it: purified enzyme, MTase-Glo SAH luminescence; measured here: GAMT inhibition; at 40 µM; stronger effect = lower value. The gist of the method: as §1
The target of assay [3] is Histamine N-methyltransferase (Homo sapiens) (UniProt P50135). The note with it: purified enzyme, MTase-Glo SAH luminescence; measured here: HNMT inhibition; at 40 µM; stronger effect = lower value. The gist of the method:
as §1

The target in assay [4] is Nicotinamide N-methyltransferase (Homo sapiens) (UniProt P40261). The note with it: purified enzyme, MTase-Glo SAH luminescence; measured here: NNMT inhibition; at 40 µM; stronger effect = lower value. The essentials:
as §1

The target in assay [5] is Phenylethanolamine N-methyltransferase (Homo sapiens) (UniProt P11086). The conditions noted are these: purified enzyme, MTase-Glo SAH luminescence; measured here: PNMT inhibition; at 40 µM; stronger effect = lower value. The essentials: as §1
On the % scale 0 is the no-effect control and ±100 the full control effect.

`CCOC(=O)c1cc2n(n1)CC(C)(C(=O)NCc1ccccc1OC)N(c1ccc(F)cc1)C2=O` (stereo not given): the activity change, negative = inhibition in assay [1] is 4.94%; in assay [2], 0%; in assay [3], 5%; in assay [4] it was 10.4%; in assay [5] it was 4.34%.
For `C[C@](N)(Cc1ccc(O)c(O)c1)C(=O)O`, in that order: -55.3%, -0.278%, -6.96%, -10.9% and -1.65%.
Take `COc1ccc(-c2n[nH]n3c2nc(=O)c2ccc(C(=O)NCc4ccccc4F)cc23)cc1`: the activity change, negative = inhibition in assay [1] is -22.4%; in assay [2] it was 2.31%; in assay [3] it was -4.12%; in assay [4], -2.53%; in assay [5], -11%.
For `Cc1cccc(CSc2nnc3n(C)c(=O)c4ccc(C(=O)NC5CCCC5)cc4n23)c1`, in that order: -0.131%, 0%, 10.7%, 8.71% and 7.06%.
As for `O=C(CN1C(=O)C(c2ccccc2)=NC12CCCC2)NC1CCCC1`, the activity change, negative = inhibition in assay [1] was 5.38%; in assay [2] it was -0.945%; in assay [3], 0.791%; in assay [4], -5.28%; in assay [5] it was -0.751%.
For `CC(C)Cn1c(=O)c2ccc(C(=O)NC3CCCCC3)cc2n2c(=O)n(Cc3ccccc3)nc12`, the activity change, negative = inhibition in assay [1] is 4.69%; in assay [2] it was 1.01%; in assay [3], 9.81%; in assay [4], 3.23%; in assay [5], 5.94%.
For `CC[C@@H](C)[C@@H]1OC2(C=C[C@H]1C)C[C@@H]1C[C@H](C/C=C(\C)[C@H](O[C@H]3C[C@H](OC)[C@H](O[C@H]4C[C@H](OC)[C@H](NC(C)=O)[C@H](C)O4)[C@H](C)O3)[C@H](C)/C=C/C=C3\CO[C@H]4[C@H](O)C(C)=C[C@@H](C(=O)O1)[C@@]34O)O2` (stereo not given in full), the activity change, negative = inhibition in assay [1] was -6.18%; in assay [2] it was 23.9%; in assay [3] it was -1.54%; in assay [4] it was -8.11%; in assay [5], -4.68%.
The matching figures for `c1cnc(N2CCN(Cc3ccc4c(c3)OCO4)CC2)nc1`: 11.2%, 11.7%, 13.8%, -6.02% and -1.4%.
As for `CN(c1ccccc1)c1cc(=O)c2ccnc(-c3ccc(CO)cc3)c2o1`, the activity change, negative = inhibition in assay [1] was -34.8%; in assay [2] it was -26.1%; in assay [3] it was -42.2%; in assay [4], -38.1%; in assay [5] it was -28%.
Turning to `Oc1cccc(Nc2ccnc3cc(-c4cccc(CN5CCOCC5)c4)sc23)c1`, the activity change, negative = inhibition was 4.8% in assay [2], -42.9% in assay [4] and -20.1% in assay [5].
For the compound `CCCC1c2cccn2CCN1C(=O)Nc1cccc(OC)c1` (stereo not given), the activity change, negative = inhibition in assay [1] was 4.21%; in assay [2], 4.07%; in assay [3] it was -10%; in assay [4], 2.07%; in assay [5] it was 9.62%.
Regarding `N[C@H]1CN(c2c(F)cc3c(=O)c(C(=O)O)cn(C4C[C@@H]4F)c3c2Cl)CC12CC2` (stereo not given in full), the activity change, negative = inhibition in assay [1] was 3.71%; in assay [2], 9.26%; in assay [3] it was -8.72%; in assay [4], -14.5%; in assay [5] it was -4.03%.
Turning to `CCCNCCOc1ccc(NC(=O)c2c[nH]c3c2C(=O)CCC3)cc1F`, the activity change, negative = inhibition in assay [1] is -1.93%; in assay [2] it was 4.92%; in assay [3], -10.6%; in assay [4], -16.2%; in assay [5] it was -2.18%.
Take `CCc1ccc(-c2cc3n(n2)CC(C)(C(=O)NC2CCCCC2)N(c2ccc(OC)cc2)C3=O)cc1` (stereo not given): the activity change, negative = inhibition was 4.02% in assay [1]; 4.32% in assay [2]; 6.56% in assay [3]; 0.986% in assay [4]; -0.394% in assay [5].
Take `CCOCCCNC(=O)C1c2c(n(C)c3ccccc23)SCC(=O)N1Cc1cccnc1` (stereo not given): the activity change, negative = inhibition in assay [1] stood at 9.22%; in assay [2] it was 0.163%; in assay [3], 5.4%; in assay [4], 3.24%; in assay [5] it was 6.99%.
In the case of `Cc1ccc(NC(=O)CSc2nnc3n(C)c(=O)c4ccc(C(=O)NC5CCCCC5)cc4n23)cc1`, the activity change, negative = inhibition is -0.967% in assay [1]; 0% in assay [2]; -5.1% in assay [3]; 0.644% in assay [4]; 4.72% in assay [5].
As to `CC(=O)OC[C@@]12[C@H](O)C[C@]3(C)C(=CCC4[C@@]5(C)CC[C@H](O[C@@H]6O[C@H](C(=O)O)[C@@H](O[C@@H]7O[C@H](CO)[C@@H](O)[C@H](O)[C@H]7O)[C@H](O)[C@H]6O[C@@H]6O[C@H](CO)[C@@H](O)[C@H](O)[C@H]6O)[C@](C)(CO)C5CC[C@]43C)[C@@H]1CC(C)(C)[C@@H](OC(C)=O)[C@@H]2O` (stereo not given in full), the activity change, negative = inhibition in assay [1] was 0%; in assay [2], 5.92%; in assay [3] it was 3.54%; in assay [4], -5.17%; in assay [5], 8.72%.
Turning to `CCCc1cc(C(=O)N2CCC(=O)N(CC3CC3)C(C(C)C)C2)cs1` (stereo not given), the activity change, negative = inhibition in assay [1] was -2.21%; in assay [2], 0.412%; in assay [3], 1.86%; in assay [4], -6.49%; in assay [5], -1.47%.
In the case of `CCOC(=O)c1cnc2ccc(-c3cncc(NS(=O)(=O)c4ccccc4)c3)cn12`, the activity change, negative = inhibition in assay [1] was -58.7%; in assay [2], -30.3% and -63%; in assay [3] it was -54.6%; in assay [4], -40.6% and -69.5%; in assay [5], -45.4% and -52.2%.
For `CC(=O)Oc1cc2c(s1)CCN([C@H](C(=O)C1CC1)c1ccccc1F)C2`, the activity change, negative = inhibition is -0.066% in assay [1] and 6.8% in assay [3].
For the compound `COc1ccc(CC2(CO)CCN(c3cc(OC)nc(N)n3)CC2)cc1`, the activity change, negative = inhibition in assay [1] is -9.16%; in assay [2], -8.12%; in assay [3] it was -16.5%; in assay [4], -16.4%; in assay [5], -19.5%.
On to `O=C(C1CCCC1)N1CC2(CCCN(Cc3ccccn3)C2)Cc2ccccc21` (stereo not given), for which the activity change, negative = inhibition in assay [1] was -9.63%; in assay [2] it was -12.7%; in assay [3] it was -11.3%; in assay [4], -26.7%; in assay [5], -13.7%.
With `Cc1cc(C)cc(NC(=O)CCc2nnc3n(Cc4ccc(F)cc4)c(=O)c4ccccc4n23)c1`, the activity change, negative = inhibition in assay [1] is -1.44%; in assay [2] it was 3.49%; in assay [3] it was 1.73%; in assay [4] it was -2%; in assay [5] it was -2.83%.
Take `COc1cc(C(=O)N2CCC(N3CCN(C)CC3)CC2)ccc1Nc1ncc2c(n1)N(C)c1ccccc1C(=O)N2C`: the activity change, negative = inhibition in assay [1] is -12.5%; in assay [2], -1.85%; in assay [3] it was -22%; in assay [4] it was -29.4%; in assay [5] it was 0.215%.
As to `CS(=O)(=O)c1ccc(CC(=O)N[C@H](c2ccccn2)C2CC(O)C2)cc1` (stereo not given in full), the activity change, negative = inhibition in assay [1] was -0.845%; in assay [2] it was -2.52%; in assay [3], -1.01%; in assay [4] it was 0.19%; in assay [5], 4.76%.
The matching figures for `COc1cc(N2CCC(O)CC2)ccc1Nc1cc(Nc2ccccc2S(=O)(=O)C(C)C)c2cc[nH]c2n1`: -15%, 2.9%, -64.2%, -17.8% and -6.51%.
As to `CC1(C(=O)NC2CCCC2)Cn2c(nc3ccccc32)C(=O)N1Cc1ccc(F)cc1` (stereo not given), the activity change, negative = inhibition in assay [1] is -2.12%; in assay [2] it was -1.24%; in assay [3] it was 1.8%; in assay [4], 0%; in assay [5], 0.367%.
As for `CC1(C(=O)NC2CCCC2)Cn2c(ccc2-c2ccco2)C(=O)N1Cc1cccc(Cl)c1` (stereo not given), the activity change, negative = inhibition in assay [1] is -3.71%; in assay [2], 4.26%; in assay [3], 3.52%; in assay [4], -2.96%; in assay [5], -0.36%.
Turning to `COCCOc1ncccc1-c1noc([C@@H]2CCCN2Cc2ccc(OC)cc2O)n1`, the activity change, negative = inhibition is -5.07% in assay [1]; -1.72% in assay [2]; -1.26% in assay [3]; -9.52% in assay [4]; -15.1% in assay [5].
